According to the supplement of paper PMC11417369:
± gives the standard deviation of the averaged measurements. This is one part of the list.

system: PfAP2-EXP AP2 domain (GST-tagged); experiment: gcPBM binding intensity (ln(normalized median fluorescence intensity)); higher = stronger DNA binding
How it was run: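 After 1 h on an Agilent 4 × 180k array of primer-extended double-stranded 36-bp intergenic genomic probes and negative controls, bound GST-tagged P. falciparum DNA-binding domains were detected with Alexa488 anti-GST antibody and scanned at 488 nm. The domains had been expressed in E. coli, and binding took place in 1× PBS with 1% milk, 0.2 mg/ml BSA, 0.5% salmon testes DNA and 0.03% Triton X-100. Binding intensity is the highest Masliner-normalised natural-log median intensity across replicate spots of either probe orientation.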

| Sequence | gcPBM binding intensity (ln) |
| --- | --- |
| TGAAATAAAAAATATAGTACTCGTTCGTAACCAAAA [XGTACX_site413] | 8.5 ± 0.31 |
| ATGGGTTAAAAATGCACACAAAAAAATATACAGATA [CACACA_site4321] | 8.92 ± 0.42 |
| TCCTCTTTTATTTTTACACACGCGTAAACATATATA [CACACA_site667] | 9.1 ± 0.49 |
| TTAAAAAAAGATTATACACACACATATATAAACATA [CACACA_site8136] | 8.6 ± 0.42 |
| ATTTATCCAAAAAAATGTACAGGATAATTTGTTCAT [XGTACX_site7737] | 8.58 ± 0.28 |
| TATTATGCCTTTAATATACACACTAATATTTTTTTG [CACACA_site2045] | 8.57 ± 0.31 |
| CATAATACCTATAACACACACAATTATACATAAACT [CACACA_site7506] | 8.69 ± 0.49 |
| TATAAAAATTAATATTGTACGTTTTATGAAAATAAA [XGTACX_site8237] | 8.3 ± 0.32 |
| GGGTTCAATTTAAAGAGTACAAAAAATGTAGGTCAT [XGTACX_site5290] | 8.78 ± 0.38 |
| TTTTAATAAACAAAACGTACACATTATTATTATATA [XGTACX_site335] | 8.36 ± 0.12 |
| TTTGTAGTTTGCACATGTACACATTTCAAAATAAAG [XGTACX_site7568] | 8.6 ± 0.2 |
| AGAGAGAAAGTTATAACATGCAACAATTTTTAGAAC [TGCATGCA_site96] | 9.15 ± 0.38 |
| TTTTTTTTTTTGTGGGTGCGTTTATAAAAACAGGAA | 9.14 ± 0.26 |
| TTTTTTTCTTGTTTTAAATAATATACTGGAAAAAAA [CACACA_negctrl_site585] | 8.22 ± 0.59 |
| AATATATACATATATTGTACATATAGTTTCTTGCAT [XGTACX_site7871] | 8.61 ± 0.33 |
| TTTCCATATTGTGGATGTACGTTTTGAGGTTTTTAC [XGTACX_site3362] | 8.51 ± 0.52 |
| ATATATATTTCTTAAAGTACATAATAATAAAAATAT [XGTACX_site8981] | 8.52 ± 0.4 |
| AAAGCACCCAGGCACACACACAAAGGAAAAGAAAAA [CACACA_site232] | 8.54 ± 0.4 |
| ATAATTATTAAGAGAACATGCAAAATATATATGTTT [TGCATGCA_site503] | 8.9 ± 0.33 |
| AATACAATAAAATAGTGTACATATATATTATGTATA [XGTACX_site8258] | 8.39 ± 0.3 |
| ATATATATATATATTTGTACGTATTATGTATTTTTT [XGTACX_site3530] | 10 ± 0.53 |
| GAATAAATTAAAAACGCATGTATCATTACTACATAA [TGCATGCA_site111] | 8.37 ± 0.33 |

| Sequence | gcPBM binding intensity (ln) |
| --- | --- |
| TTTATATTATACTATACATGCATATAATAAAGGTCA [TGCATGCA_site934] | 8.68 ± 0.17 |
| TTAAAATATGATATATGTACATAATTACTAAAAACA [XGTACX_site276] | 8.65 ± 0.35 |
| ATTTTATTTTTTTGTGATAATTGATTTATATATTGT [TGCATGCA_negctrl_site563] | 8.47 ± 0.4 |
| AATAGAATAATCCTTACACACACACGCGCACGAATA [CACACA_site6365] | 8.65 ± 0.49 |
| TATATATTACATTGTTGTACATATATATTATATATA [XGTACX_site60] | 8.45 ± 0.29 |
| ATTATTTCTTTGTGATGTACAAATAAACATGTTGGT [XGTACX_site5636] | 8.62 ± 0.37 |
| TAAATATATATATATTGTACAAAACAAATGTGAATT [XGTACX_site696] | 8.96 ± 0.28 |
| TTAAAAATATTATGTACACACATTTTAGATATTTGT [CACACA_site1846] | 8.27 ± 0.24 |
| TAATTAAAATCATATACACACCCATATATATATATA [CACACA_site8524] | 10 ± 0.25 |
| TCCTAATATTTGTCAAATTTCAAAATAAATAAAATG [XGTACX_negctrl_site540] | 8.3 ± 0.45 |
| CATATTTTTTCTTAAACACACACATATATATATATA [CACACA_site8920] | 10.1 ± 0.41 |
| TTAAAAAAAAAAAAAAGTACATAAGTATATATAATA [XGTACX_site4295] | 8.43 ± 0.45 |
| TATATATATATGTACACACACACATATAAATAAATA [CACACA_site443] | 9.91 ± 0.4 |
| TAAAAGGGGATATATGAACACACAAAAAAAAAATAT [CACACA_site8940] | 8.79 ± 0.7 |
| TAAATGTTTCTCAAAAGTACACATGTGATATTTCTT [XGTACX_site2065] | 8.39 ± 0.35 |
| ATATTAAGTTTTATTACACACTCTCAATTTTTATTT [CACACA_site4206] | 8.68 ± 0.3 |
| ATATATTTCTGTCAAGCACACATAATATTAATATAT [CACACA_site7993] | 8.86 ± 0.45 |
| AATGATACTTAGGGGCATGTCTCTGGGGGCATAACC [CACACA_negctrl_site591] | 9.54 ± 0.4 |
| TACAAATATAGATGCACACACATATAGGTATATGTG [CACACA_site7439] | 8.4 ± 0.45 |
| TATATATAATTATAAGAACACACATATATATATATA [CACACA_site8786] | 10.2 ± 0.18 |
| GTTATAAACAAAATAAATATATGAATATATAATAAT [XGTACX_negctrl_site96] | 8.35 ± 0.11 |
| CATATTATATTTTCATGTACACATAACATATTTATA [XGTACX_site4787] | 8.69 ± 0.19 |

| Sequence | gcPBM binding intensity (ln) |
| --- | --- |
| ATATAGTAAATGTTCACACATACAAATATATATATA [CACACA_site5518] | 9.56 ± 0.26 |
| AAGTTTTCTTAAAGCTGTACTTTTTAAAAATAAAAT [XGTACX_site7716] | 8.12 ± 0.36 |
| CATAAATACAGATATACACACATATATATATATATA [CACACA_site4528] | 10.1 ± 0.38 |
| TTTAACATAAATTAAACACACAATAAAATACATTAA [CACACA_site6699] | 8.54 ± 0.44 |
| GAGGTACATTAATTAGTGCATTAAAATTTTTATCCT | 9.01 ± 0.29 |
| ATAATACATATAGAAGGTACACTATTATTTTCCTGA [XGTACX_site903] | 8.43 ± 0.34 |
| ATTATCCATGCATTTACACACACACTAATAAAAATT [CACACA_site9358] | 8.95 ± 0.38 |
| ATTCAAAATAATCACAGTACACATGAGATTATCTTT [XGTACX_site2197] | 8.31 ± 0.57 |
| TAATTTCTTATGTATTGTACAAATAATATATTATTT [XGTACX_site3066] | 8.85 ± 0.46 |
| TTATTGAAAAACATAATATCTAAGAGGGTAATATAT [GTGCAC_negctrl_site599] | 8.46 ± 0.45 |
| TTAATATGGAAATGTTGTACATTTCTTGAAGCATTC [XGTACX_site525] | 8.26 ± 0.23 |
| ACTTCATAAACATTTTGTACGTATGTATCTTTTTAT [XGTACX_site7012] | 8.97 ± 0.38 |
| TCCTTAGAAATATTGATCATAAACTGGAAAGGTATA [XGTACX_negctrl_site354] | 8.59 ± 0.37 |
| TGGAAACAAAAACACACACACAAAAAAAAAAAAAAA [CACACA_site3209] | 8.12 ± 0.67 |
| TGTATTATTAATATTTGTACGTAATAATAAAAACAT [XGTACX_site3716] | 8.62 ± 0.36 |
| GAAATATATAAATTGACACACACATATATACATATA [CACACA_site8323] | 8.51 ± 0.28 |
| AAAATATGATATGAAAAATTTGTTATATATACATAA [CACACA_negctrl_site1529] | 8.3 ± 0.35 |
| GACATTTGTGAGCTTGAGCCGTCAAACCACTAAATA [CACACA_negctrl_site552] | 8.39 ± 0.56 |
| TAATTATAAATTATAGTGCATAAAATTGTAGCATAA | 8.53 ± 0.17 |
| TGTATTAATATGGTAATACACACTAATATACTTTTG [CACACA_site1610] | 8.24 ± 0.29 |
| AGGTCTGTTTTATATTGTACATAAAAAGTGCACATG [XGTACX_site4529] | 9.145 ± 0.007 |
| TGTTATTCGACATATACACACAAATAACAATTTAAA [CACACA_site5076] | 8.55 ± 0.53 |

| Sequence | gcPBM binding intensity (ln) |
| --- | --- |
| AACATAATAAAAATGGATATAATTCAAAGTTTGTAA [TGCATGCA_negctrl_site529] | 8.32 ± 0.28 |
| TGTAGAATTTCCTGAACATGCAAATAATTTTCCTTA [TGCATGCA_site881] | 8.41 ± 0.59 |
| AAAAAATTGAAGGAGTGTACATTTATACTTTATTTT [XGTACX_site8623] | 8.39 ± 0.34 |
| TTCTATAAGTATAAATGTACAAAAAAAACATCATTC [XGTACX_site5450] | 8.72 ± 0.46 |
| CTCATAATTTCTGAACGTACGTATTTCTCATTTTTA [XGTACX_site7296] | 8.83 ± 0.44 |
| CATATTCCAAGAATGTGTACATAATTTTTTTTTTTT [XGTACX_site4310] | 8.19 ± 0.32 |
| ATTTTTTTTTAATGCAAAAGGTGATGATCGGTCATA [CACACA_negctrl_site959] | 8.21 ± 0.35 |
| ATGTAAATTATTATTCTATTGTTATATACACAATAT [XGTACX_negctrl_site332] | 8.61 ± 0.34 |
| TTTTCTTGATTTTGTAGTACATTTTTACGATATTTT [XGTACX_site63] | 8.75 ± 0.42 |
| CACATACATATATACACACACAAAATAATAAAATAA [CACACA_site2308] | 8.79 ± 0.38 |
| TTTTTAAAAATAACAGAAAAGAATTACAGATTTTTT [XGTACX_negctrl_site472] | 8.34 ± 0.41 |
| AAAATTATATTTTATAGAAATTTAAATAAATATATA [GTGCAC_negctrl_site199] | 8.01 ± 0.38 |
| TTTTTTACATCCATAAAACTTTTTCTCTTTTAAAAT [CACACA_negctrl_site1745] | 8.35 ± 0.46 |
| AGAGAGAAAGGTATAACATGCGATAAATTTTAGAAG [TGCATGCA_site37] | 8.88 ± 0.45 |
| ATATAGTTCGTTTATACACACATGATAAGATATTTA [CACACA_site1947] | 8.63 ± 0.38 |
| AAATCACTTTTTAAGTGTACTTGGTCTTTCTCATTT [XGTACX_site7221] | 8.36 ± 0.35 |
| CAATTAAATATATGAACACACATGTGAACTTTCTAT [CACACA_site3977] | 8.54 ± 0.42 |
| TATTAAATTATATAGACACACATTATATATATATAT [CACACA_site4345] | 9.73 ± 0.17 |
| AAATACCTGATATATACACACTATGTTTTTCTTTTT [CACACA_site6680] | 8.72 ± 0.53 |
| AAAAAGAAATATTTATGTACATAATAATAATATTTT [XGTACX_site4693] | 8.4 ± 0.35 |
| AATATAGATACATATACACACACACCCATACATATA [CACACA_site9137] | 8.87 ± 0.52 |
| GTAACAAATAAAATAACACACATGTCGAAATGTATG [CACACA_site2971] | 8.57 ± 0.5 |
